# In the supplement of paper PMC11417369:
# ± gives the standard deviation of the averaged measurements. This is one part of the list.
# System: PfAP2-LT AP2 domain (GST-tagged)
# Test: gcPBM binding intensity (ln(normalized median fluorescence intensity)); higher = stronger DNA binding
# How it was run: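 Probes on an Agilent 4 × 180k array were primer-extended, double-stranded and 36 bp long, taken from intergenic genomic regions, with negative controls added. GST-tagged P. falciparum DNA-binding domains from E. coli, about 25 μg on average, were applied to the array for 1 h in 1× PBS containing 1% milk, 0.2 mg/ml BSA, 0.5% salmon testes DNA and 0.03% Triton X-100. Binding intensity, obtained after Alexa488 anti-GST antibody detection and a 488 nm scan, is the highest Masliner-normalised natural-log median intensity across replicate spots of either probe orientation.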
row,Sequence,gcPBM binding intensity (ln)
1,AGGAGGTCAGTTCACAGTACCCAGGAAATCTACGGA [XGTACX_site2552],8.71 ± 0.56
2,AAAAATAAAATAAAGAAGGAAAATAAAAAAATAAGG [CACACA_negctrl_site1811],8.71 ± 0.63
3,AATTTCATAAATATAACTGAGAATAAATAAACAAAG [GTGCAC_negctrl_site146],8.57 ± 0.44
4,ACATATATTTAAAAATGTACTTACATATATTTTTTA [XGTACX_site6050],8.37 ± 0.48
5,TTTTATACATATTTTACACACTAAAATATACATATA [CACACA_site324],8.75 ± 0.45
6,GAAGTATTTATTTATGCATGCAAATATACAAAAAAA [TGCATGCA_site975],8.84 ± 0.3
7,TTATGTTGTAAATGCACACATACATAAACTCAGTTT [CACACA_site5639],9.05 ± 0.38
8,TTATTATTATTACTAGTGCATTAATTATATATGTAA,8.55 ± 0.42
9,TTTTTTTTTTCTGAAAGTACTAATTTCCTGGAGGAA [XGTACX_site759],8.19 ± 0.48
10,TAAATATTTTTAGATGCATGCAATAATTACCCAAAG [TGCATGCA_site636],8.86 ± 0.28
11,ATAAAATAAATATTTTGTTATTTATTTAATCTAATA [XGTACX_negctrl_site404],8.2 ± 0.59
12,ACCTCATAATATTTAACACACAAAATTAAATGTATG [CACACA_site6898],8.96 ± 0.34
13,TTTCAAAAAAATAATGTGCACATTAGAAAATAAATA [GTGCAC_site9416],8.79 ± 0.45
14,CTTATCAAAAAAAAAGCATGCCACAGGCAAAAGGTA [TGCATGCA_site574],8.97 ± 0.47
15,ACATATAAATATATTACACACACACTAAAAAAATAA [CACACA_site6209],9.69 ± 0.27
16,CACCTTATAAATACTGCACACATAAAATATATATTA [CACACA_site8908],9.03 ± 0.39
17,ATATATATATATATATGTACATATATACATATACAT [XGTACX_site2350],9.85 ± 0.38
18,AAAATATAATATAATGCACACATAAAACAAAAAAAA [CACACA_site8989],9.05 ± 0.4
19,GAATAATATATATATTGTACTTTTTATTTATATTAT [XGTACX_site3180],8.79 ± 0.37

row,Sequence,gcPBM binding intensity (ln)
1,AAAAAAAAATTAATATATAAAAGGATATATATATAT [GTGCAC_negctrl_site449],8.94 ± 0.24
2,ATATATATATTTATATGTACGAAATATAAAAAAAAA [XGTACX_site5054],8.69 ± 0.46
3,CTTTTTTTTTTTTTTACACACCCAAATCACATACAT [CACACA_site4051],8.96 ± 0.5
4,TGAACACACGAGCACACACACACATCTATATTTATA [CACACA_site6607],10 ± 0.28
5,TGGAATAATACGCGTACACACATATATATATTAATA [CACACA_site131],9.19 ± 0.45
6,AGGTATCAAAAATATGCATGCAATATTTTATGTAAT [TGCATGCA_site1055],9.02 ± 0.38
7,ATATAAAAATGTGTATGTACACACTTTATTTTTAAT [XGTACX_site5272],9.38 ± 0.29
8,ATCCTTTATTTTTTTTGTACATAAAAATAACTCGAG [XGTACX_site3885],8.95 ± 0.54
9,TTAAAAAACCTTAGATGTACAGTTATATATAAAATA [XGTACX_site6688],8.54 ± 0.4
10,AAATTACAAATACAAACACACAAATGTTTTTCATTC [CACACA_site3552],8.78 ± 0.42
11,TTTTTCTATAAAAAATGTACATATTTTATGAAGGAA [XGTACX_site821],8.18 ± 0.31
12,AAAATAAAAATATTCACACATACAAAAATTATACAA [CACACA_site5136],8.79 ± 0.52
13,CATTAATAAAAAAAAAGTACAAAAAATATATATATT [XGTACX_site2091],8.71 ± 0.57
14,ATTTTTTTACTGTAACCATATTTTTCCCTTTTATTC [CACACA_negctrl_site1143],8.86 ± 0.63
15,ATAATATATATATATAGTACATATATATAATATTCT [XGTACX_site2445],8.66 ± 0.4
16,TTTTTTTTTTTTTTTTGTACGTATCAAAAAATTTGT [XGTACX_site1023],8.5 ± 0.31
17,AAAAATAAATTTAGTTGTACTTTATTATTTTAAATA [XGTACX_site3067],8.28 ± 0.37
18,AATCAATAAATAAAAACATGCATATATATATATATA [TGCATGCA_site438],9.9 ± 0.38
19,AAAAAAAAAAAAATACGTACATACATACCTACATAT [XGTACX_site233],8.98 ± 0.41

row,Sequence,gcPBM binding intensity (ln)
1,TATATATATATGTGTACACAATTTATCTGTATTTAT [CACACA_site5945],9.34 ± 0.32
2,AAGAAAAACTTTACGTGTACCAAACATCCTGCCAAC [XGTACX_site598],9.04 ± 0.27
3,ATAGACAGCGCACAAACACACAAACACCCACCCACA [CACACA_site8043],9.99 ± 0.31
4,TATATTGATGATGATAGTACGTATGATTAGAAAAAA [XGTACX_site8989],8.74 ± 0.48
5,AGTGATACTAATTTTTGTACGCATAAAAGAATATTC [XGTACX_site6055],8.67 ± 0.24
6,TAGGAAAAGAAAAGCACACACATAAATAAATATATA [CACACA_site504],9.34 ± 0.43
7,TAATTTATTATATTTTGTACGTAAAATTATTATTGT [XGTACX_site8155],8.64 ± 0.52
8,AATATTTATTTTACATGTACTTATTTTTCTTTTAAC [XGTACX_site3631],9.29 ± 0.45
9,AATATATATTTATATTGTACATATATATATATTTCT [XGTACX_site2603],8.76 ± 0.42
10,ATTATATATACACGCACACACACTTATATATATATA [CACACA_site9093],9.81 ± 0.26
11,CATTCATTTATTAATTGTACTTTTAAGGTTAAATAA [XGTACX_site5838],8.27 ± 0.4
12,TAAAAATATATACATACATGCATACATATATATGTA [TGCATGCA_site774],8.65 ± 0.34
13,CAAGCCCTTCTGCTTACACACAGTAATTATTGTGTA [CACACA_site2953],9.19 ± 0.35
14,TTTTTAACATATCATACACACAACAACTTTTTATAG [CACACA_site1962],8.79 ± 0.36
15,AAAAAAAAAAATATAACACACAAAAAATTGTATCGA [CACACA_site1144],8.73 ± 0.51
16,ATATAGTAAAATTATACACACATGAATTTTCCCATA [CACACA_site3113],8.96 ± 0.43
17,ACAAAATTTACAAAATGTACATATTGTAGATATTGT [XGTACX_site7618],8.73 ± 0.4
18,CCATTAAATACATACACACCCACACCCAAAAAAAAA [CACACA_site4633],9.85 ± 0.14
19,TATAAATAAAGACACACACACATATAAATAAATATA [CACACA_site7155],9.68 ± 0.26
